About 60 (0.1%) of roughly 46,000 compounds were called active. Not shown: some 3% with an inconclusive outcome. Calls come from the whole dose curve; as a rule, active = well fitted inhibition curve with a large enough effect; inconclusive = small, poorly fitted or top-dose-only effect; inactive = no such curve, though single readings can be large or run the other way. The list shows a part of the results.
Experiment: Primary qHTS assay for Inhibitors of ovarian cancer metastasis using an organotypic tumor microenvironment (TME) model.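 For activity change, negative = inhibition: plate controls were DMSO wells for no effect and tomatine positive control wells for full effect.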 Note: nearly all actives have a fitted effect of over 65% in size.
Details: SKOV3ip1-GFP adhesion/invasion on 3D omental model, fluorescence; series mostly up to 45.8 µM; activity change, negative = inhibition: at the top concentration
Method in brief: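 Primary human omental fibroblast/mesothelial 3D culture pre-formed 48 h. SKOV3ip1-GFP cells added with compounds (0.36-46 umol/L), incubated 2 h RT/16 h 37 C, fixed; GFP cells quantified at 488/509 nm.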

Activity change, negative = inhibition, inactive:
CC(=O)Nc1cc(-c2nc3ccccc3s2)ccc1C -9.7%
Cc1ccc(C2=CC(c3c(F)cccc3Cl)n3ncnc3N2)cc1C (stereo unspecified) 3.92%
COc1ccc(C)cc1NC(=O)c1ccc2c(c1)CCN2S(=O)(=O)c1ccc(Cl)cc1 11.6%
COc1ccc(CNc2nc3c(c(=O)n(C)c(=O)n3C)n2Cc2ccccc2Cl)cc1 8.78%
Cc1ccc(C)c(CN2CCC(CNC(=O)c3cc4ccc5cccnc5c4[nH]3)CC2)c1 -14.3%
Cc1cccc(-c2noc(-c3ccc(N4CCN(C)CC4)c([N+](=O)[O-])c3)n2)c1 8.95%
CCOC(=O)c1ccc(CN(Cc2ccccc2C)S(=O)(=O)c2ccc(C(C)(C)C)cc2)cc1 0.627%
Cc1ccc(C(=O)n2nc(C)c(S(=O)(=O)N3CCCCCC3)c2C)cc1 7.81%
CC1CCN(S(=O)(=O)c2ccc3c(c2)CCC(=O)N3CC(=O)Nc2cccc(C#N)c2)CC1 8.73%
CCCCNC(=O)CSc1nnc(C)c2c(C)n(-c3ccccc3)nc12 -5.42%
Cc1ccc(Cn2c(C)c(CNCCCc3ccccc3)c(C(=O)O)c2C)cc1 -1.85%
O=C(NCc1ccccc1)c1ccc(CSc2nc3cccnc3n2Cc2ccccc2F)cc1 -21.9%
Cc1ccc(C2=NN(CC(=O)NCCN(CC(C)C)CC(C)C)C(=O)CC2)cc1 3.19%
CCC1CN(C(=O)N2CCC(C(=O)NCc3ccccc3C)CC2)c2ccccc2O1 (stereo unspecified) 4.23%
Cc1ccc(-c2noc(CNC(=O)c3ccccc3)n2)cc1 12%
Cc1ccc(-c2cc3c(n2-c2ccc(C)cc2)CC(C)(C)CC3=O)cc1 0.363%
COc1ccc(OCC(=O)Nc2cccc(-c3nc4ccccc4s3)c2C)cc1 9.71%
Cc1ccc(S(=O)(=O)c2cn(C)c3cc(N4CCCC(C)C4)c(F)cc3c2=O)c(C)c1 (stereo unspecified) -6.28%
Cc1cc2c(cc1S(=O)(=O)N(CCN(C)C)Cc1ccco1)OCC(=O)N2 -6.32%
CC(C)N(Cc1ccccc1)C(=O)CCS(=O)(=O)c1ccc2c(c1)oc(=O)n2C 5.72%
Cc1ccc(NC(=O)C2CCN(S(=O)(=O)c3c(C)noc3/C=C/c3ccco3)CC2)cc1C -2.68%
COc1ccccc1OCC(=O)Nc1nc(-c2ccc(Br)cc2)ns1 17.8%
Cc1nc(N2CCCC2)ncc1C(=O)Nc1ccc(F)cc1F 0.705%
O=C(c1ccc2c(c1)N(Cc1ccccc1F)C(=O)c1ccccc1S2=O)N1CCOCC1 (stereo unspecified) 44.9%
CC(C)(C)CC(=O)NC1CC(=O)N(c2ccc3c(c2)OCCO3)C1 (stereo unspecified) 6.01%
Cc1c(Cl)cccc1NC(=O)Cn1cnc2nc3c(cc2c1=O)CCCC3 2.83%
Cc1ccc(-n2ncc3c(N4CCC(Cc5ccccc5)CC4)ncnc32)cc1 1.98%
Cc1ccc(CN2CCc3nc(N4CCN(C)CC4)ncc3C2)s1 -1.22%
CN(Cc1ccccc1)S(=O)(=O)c1nnc(NC(=O)c2ccccc2)s1 6.06%
CCCCCN=C(N)NN=Cc1c[nH]c2ccc(OC)cc12 -8.73%
CCc1ccc(C(=O)c2cn(CC(=O)Nc3ccc(C)c(C)c3)c3ccccc3c2=O)cc1 -6.77%
O=C(NCC1CCCO1)c1c[nH]c2ccc(S(=O)(=O)Nc3cccc(C(F)(F)F)c3)cc2c1=O (stereo unspecified) 1.37%
Cc1ccc2c(c1)cc1c(=O)n(CC(=O)N3CCCCC3)nc(C)n12 3.6%
Cc1cccc(N(C)C(=O)CSc2nc3ncccc3o2)c1 -1.15%
Cc1cccc(N(C)C(=O)CCNS(=O)(=O)c2ccc3c(c2)CCN3C(=O)C2CC2)c1 63.9%
N#Cc1ccc(CSc2nc3c(c(=O)[nH]2)CCCC3)cc1 11.3%
O=c1c(O)c(-c2ccc(O)cc2O)oc2cc(O)cc(O)c12 -9.21%
COc1ccc(C2CNC(=O)C2)cc1OC1CCCC1 (stereo unspecified) -4.56%
Cn1ncc2c(Nc3cccc(F)c3)ncnc21 -8.74%
Fc1ccc2ncc3c(-c4ccccc4)n[nH]c3c2c1 0.658%
CC(C)Sc1ncc(Cl)c(C(=O)Nc2ccc(S(=O)(=O)N(C)c3ccccc3)cc2)n1 5.33%
Cc1ccc(C)c(CS(=O)(=O)c2cn(CC(=O)N(C(C)C)C(C)C)c3ccccc23)c1 0.26%
COC(=O)CCn1cnc2onc(-c3cc(F)cc(F)c3)c2c1=O 6.98%
O=C(Nc1c(C(=O)Nc2ccccc2F)oc2ccccc12)c1cc2ccccc2o1 -6.19%
CCOc1ccc(C(=O)N2CCC(c3noc(-c4ccc(S(=O)(=O)N5CCCC5)cc4)n3)CC2)cc1 -1.94%
Cc1ccc(OCCn2nnc3sc4c(c3c2=O)CCC(C)C4)cc1 (stereo unspecified) 2.79%
COc1cc(NC(=O)Cn2c(=O)n(Cc3ccco3)c(=O)c3oc4ccccc4c32)cc(OC)c1 -0.68%
Cc1cc(C)cc(NS(=O)(=O)c2ccc3[nH]cc(C(=O)NCc4ccccc4Cl)c(=O)c3c2)c1 -8.24%
CC(=O)Nc1nc(C)c(-c2ccc(Cl)c(S(=O)(=O)NCCO)c2)s1 -13.1%
CCOc1ccc(NC(=O)c2cc(=O)c3ccc(C)c(C)c3o2)cc1 -6.96%
COc1ccc2occ(CC(=O)Nc3ccc(S(=O)(=O)Nc4nc(C)cc(C)n4)cc3)c2c1 1.14%
COc1ccc(C2C(C(=O)Nc3ccc(C)cc3C)=C(C)Nc3nc4ccccc4n32)c(OC)c1 (stereo unspecified) -13.5%
O=C1CSC2(C(=O)N(Cc3ccccc3)c3ccccc32)N1c1ccc(Cl)cc1 (stereo unspecified) 3.02%
CCN(c1ccccc1)c1nnc(NC(=O)Nc2ccc(Br)cc2F)s1 2.89%
O=C(Nc1ccc(Br)cc1F)N1CCC2(CC1)Oc1ccccc1C(=O)N2Cc1ccccc1F 5.22%
COc1ccc(N2CCN(c3nc4ccc(C)cc4n4nnnc34)CC2)cc1 4.44%
CCOc1ccc2c(c1)NC(c1cccs1)=NC(c1ccc(F)cc1)=N2 -0.792%
COC(=O)c1ccc(Cn2nnc3c(=O)[nH]c(C4CCCN(S(=O)(=O)c5cccc(Cl)c5)C4)nc32)cc1 (stereo unspecified) 0.159%
COc1ccc2c(c1)cc1c(=O)n(CC(=O)NCCCc3ccccc3)nc(C)n12 1.88%
COc1cccc2c1Oc1ncccc1N(C(=O)CCC(=O)NCc1ccccc1Cl)C2 0.406%
CCC(C)NC(=O)C1=CC(c2ccc3c(c2)OCO3)=NS(=O)(=O)N1C (stereo unspecified) 2.76%
COC(=O)c1cc(NC(=O)Cn2nc(-c3ccc(C)c(C)c3)ccc2=O)cc(C(=O)OC)c1 18.4%
COc1ccc(Cc2nc3ccccc3n2Cc2ccccc2F)cc1 -0.794%
Cc1ccccc1CSc1ncc(CO)n1Cc1ccc(F)cc1 14.7%
CC(O)CNc1nc2c(c(=O)n(Cc3ccc(Cl)cc3)c(=O)n2C)n1C (stereo unspecified) -5.53%
CCC1CN(C(=O)Nc2ccc(C)c(F)c2)c2ccccc2S1 (stereo unspecified) -2.76%
Cc1nnc(N2CCC(C(=O)NCCc3ccccc3)CC2)c2nn(-c3ccc(Cl)cc3)c(C)c12 -6.19%
CCOc1ccc(-n2nc3cc(C)c(NC(=O)c4cc(OCC)c(OCC)c(OCC)c4)cc3n2)cc1 -0.693%
CC(C)(C)C(=O)NC1(C(F)(F)F)C(=O)Nc2c1c(=O)[nH]c(=O)n2-c1ccccc1 (stereo unspecified) 5.33%
Cc1ccc(NC(=O)CN2CCSc3ccc(S(=O)(=O)N4CCCC4)cc32)cc1C -2.18%
O=C1CN(C(=O)c2ccc(S(=O)(=O)N3CCCC3)cc2)C(c2ccccc2)c2cc(Br)ccc2N1 (stereo unspecified) 1.03%
CCOc1ccc(-c2nnc(SCC(=O)NCc3ccccc3)o2)cc1 -7.96%
Cc1nncn1-c1ccc(C(=O)Nc2cc(F)ccc2F)cc1 -12.8%

outcome, inactive:
COc1cccc(C2C(C(=O)Nc3ccccc3)=C(C)Nc3nc(-c4ccccc4)nn32)c1OC (stereo unspecified)
CC(C)NC(=O)C1CCN(c2nc3ccccc3nc2C(F)(F)F)CC1
O=C(NCCOCCn1c(=O)oc2ccccc21)Nc1ccc(F)cc1
COc1ccc2c(c1)c1c(c(=O)n(-c3ccccc3)c(=O)n1CC(=O)Nc1ccc(C)c(C)c1)n2C
COc1cc(NC(=O)CN2CCN(CC(=O)Nc3ccc(F)cc3)CC2)cc(OC)c1
COc1cc(C(CC(=O)NCCC(C)C)N2Cc3ccccc3C2=O)cc(OC)c1OC (stereo unspecified)
CN(C1CCCCC1)S(=O)(=O)c1ccc2c(c1)c(=O)c(C(=O)N1CCN(c3ccccc3F)CC1)cn2C
CCc1c(-c2ccccc2)nc2ccccc2c1C(=O)NCc1ccc(C)cc1
Cc1ccc(-c2nc(Cn3c(=O)cc(-c4ccccc4)c4c(C)nn(C)c43)c(C)o2)cc1
O=C(CSc1nnc(-c2ccc([N+](=O)[O-])cc2)o1)Nc1ccccc1
CSc1cccc(NS(=O)(=O)c2cn(C)c(C)n2)c1
Cn1cnc(S(=O)(=O)N2CCC(C(=O)N3CCN(c4ccccc4F)CC3)CC2)c1
O=C(CN1C(=O)COc2ccc(S(=O)(=O)Nc3ccccc3)cc21)Nc1cccc(Cl)c1
CC(C)(C)c1ccc(C(=O)N2CCCCC2CCN2CCCCC2)cc1 (stereo unspecified)
CCN(C(=O)Cn1cnc2sc(C)c(S(=O)(=O)N3CCN(c4ncccn4)CC3)c2c1=O)c1ccccc1F
CC(=O)c1ccc(NC(=O)CC(c2cccs2)N2Cc3ccccc3C2=O)cc1 (stereo unspecified)
CCOc1ccc(-c2cc(-c3nc(-c4ccc(OC)c(OC)c4)no3)[nH]n2)cc1
COc1ccc(CCNC(=O)CCc2c(C)c3cc4c(C)coc4c(C)c3oc2=O)cc1OC
CCOC(=O)c1ccc(NC(=O)c2ccc(=O)n(Cc3cccc(C)c3)c2)cc1
Cc1ccc(-n2ncc(C(=O)N3CCN(c4ccc(Cl)cc4)CC3)c2C2CCN(C(=O)OC(C)(C)C)CC2)c(C)c1
Cc1cc(Cl)ccc1OCC(=O)N(Cc1ccco1)Cc1ccco1
Cc1cc2c(cc1S(=O)(=O)CCC(=O)NCCc1ccccc1)OCC(=O)N2
COc1cc(OC)c(NS(=O)(=O)c2cc(-c3cnc(C4CC4)o3)ccc2C)cc1Cl
